Here are results for eleven molecules from article PMC12048663.

Protein sequences, listed by entry. Tags and fused reporters are not part of them. Lines headed by an entry give the natural chain unless they say otherwise; changes in a name come on top. Chains listed by the source or under a name are the forms on record and can include a tag or linker.
UniProt Q2TAZ0: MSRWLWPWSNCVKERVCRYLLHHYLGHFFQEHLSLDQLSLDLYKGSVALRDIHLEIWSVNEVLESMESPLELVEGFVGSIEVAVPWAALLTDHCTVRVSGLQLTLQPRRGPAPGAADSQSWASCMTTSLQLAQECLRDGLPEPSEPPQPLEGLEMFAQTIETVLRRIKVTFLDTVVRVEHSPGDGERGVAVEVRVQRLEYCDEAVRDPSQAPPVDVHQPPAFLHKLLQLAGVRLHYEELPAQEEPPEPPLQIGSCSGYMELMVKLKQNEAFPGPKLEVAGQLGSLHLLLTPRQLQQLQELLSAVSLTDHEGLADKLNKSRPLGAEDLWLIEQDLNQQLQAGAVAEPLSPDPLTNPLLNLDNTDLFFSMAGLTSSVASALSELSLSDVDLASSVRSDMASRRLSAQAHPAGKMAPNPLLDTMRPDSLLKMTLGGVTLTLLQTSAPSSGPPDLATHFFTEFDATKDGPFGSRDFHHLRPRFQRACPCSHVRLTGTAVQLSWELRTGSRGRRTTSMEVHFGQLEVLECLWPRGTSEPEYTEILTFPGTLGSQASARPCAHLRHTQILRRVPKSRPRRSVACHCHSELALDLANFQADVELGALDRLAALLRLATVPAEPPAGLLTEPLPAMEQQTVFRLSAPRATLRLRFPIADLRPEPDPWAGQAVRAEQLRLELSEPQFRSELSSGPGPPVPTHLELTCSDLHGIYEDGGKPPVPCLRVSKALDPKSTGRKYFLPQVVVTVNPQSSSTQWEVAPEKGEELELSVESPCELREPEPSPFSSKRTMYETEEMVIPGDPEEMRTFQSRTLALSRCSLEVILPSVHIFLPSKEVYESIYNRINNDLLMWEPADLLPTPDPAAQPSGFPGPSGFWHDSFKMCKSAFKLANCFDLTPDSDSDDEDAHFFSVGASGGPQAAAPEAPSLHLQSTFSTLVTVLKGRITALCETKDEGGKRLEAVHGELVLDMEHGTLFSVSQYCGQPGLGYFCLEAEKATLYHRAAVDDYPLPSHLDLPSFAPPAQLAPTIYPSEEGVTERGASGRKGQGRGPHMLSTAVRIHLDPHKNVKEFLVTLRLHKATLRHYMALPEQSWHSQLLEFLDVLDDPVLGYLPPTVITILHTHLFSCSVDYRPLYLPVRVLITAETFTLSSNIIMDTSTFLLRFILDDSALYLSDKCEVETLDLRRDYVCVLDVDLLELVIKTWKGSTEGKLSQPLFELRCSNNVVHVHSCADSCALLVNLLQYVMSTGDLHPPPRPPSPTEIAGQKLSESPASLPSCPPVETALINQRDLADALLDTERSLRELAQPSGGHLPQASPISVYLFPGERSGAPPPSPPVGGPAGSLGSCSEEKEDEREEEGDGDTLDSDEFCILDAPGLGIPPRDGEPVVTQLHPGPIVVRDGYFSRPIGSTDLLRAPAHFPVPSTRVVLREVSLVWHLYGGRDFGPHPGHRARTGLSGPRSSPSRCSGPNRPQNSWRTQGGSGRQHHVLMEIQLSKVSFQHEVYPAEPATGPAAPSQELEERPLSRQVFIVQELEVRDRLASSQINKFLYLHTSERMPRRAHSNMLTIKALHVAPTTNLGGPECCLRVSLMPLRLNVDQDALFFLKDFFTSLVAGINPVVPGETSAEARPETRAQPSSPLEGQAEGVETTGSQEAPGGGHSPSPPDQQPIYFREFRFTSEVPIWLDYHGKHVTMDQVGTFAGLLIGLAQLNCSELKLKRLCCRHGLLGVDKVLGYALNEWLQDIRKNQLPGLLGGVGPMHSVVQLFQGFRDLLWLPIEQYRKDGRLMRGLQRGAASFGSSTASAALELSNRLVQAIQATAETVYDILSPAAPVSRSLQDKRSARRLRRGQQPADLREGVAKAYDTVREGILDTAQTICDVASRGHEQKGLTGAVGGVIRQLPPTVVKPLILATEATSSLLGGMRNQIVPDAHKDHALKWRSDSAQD
HA-ATG2A-3CS (Q2TAZ0, form named): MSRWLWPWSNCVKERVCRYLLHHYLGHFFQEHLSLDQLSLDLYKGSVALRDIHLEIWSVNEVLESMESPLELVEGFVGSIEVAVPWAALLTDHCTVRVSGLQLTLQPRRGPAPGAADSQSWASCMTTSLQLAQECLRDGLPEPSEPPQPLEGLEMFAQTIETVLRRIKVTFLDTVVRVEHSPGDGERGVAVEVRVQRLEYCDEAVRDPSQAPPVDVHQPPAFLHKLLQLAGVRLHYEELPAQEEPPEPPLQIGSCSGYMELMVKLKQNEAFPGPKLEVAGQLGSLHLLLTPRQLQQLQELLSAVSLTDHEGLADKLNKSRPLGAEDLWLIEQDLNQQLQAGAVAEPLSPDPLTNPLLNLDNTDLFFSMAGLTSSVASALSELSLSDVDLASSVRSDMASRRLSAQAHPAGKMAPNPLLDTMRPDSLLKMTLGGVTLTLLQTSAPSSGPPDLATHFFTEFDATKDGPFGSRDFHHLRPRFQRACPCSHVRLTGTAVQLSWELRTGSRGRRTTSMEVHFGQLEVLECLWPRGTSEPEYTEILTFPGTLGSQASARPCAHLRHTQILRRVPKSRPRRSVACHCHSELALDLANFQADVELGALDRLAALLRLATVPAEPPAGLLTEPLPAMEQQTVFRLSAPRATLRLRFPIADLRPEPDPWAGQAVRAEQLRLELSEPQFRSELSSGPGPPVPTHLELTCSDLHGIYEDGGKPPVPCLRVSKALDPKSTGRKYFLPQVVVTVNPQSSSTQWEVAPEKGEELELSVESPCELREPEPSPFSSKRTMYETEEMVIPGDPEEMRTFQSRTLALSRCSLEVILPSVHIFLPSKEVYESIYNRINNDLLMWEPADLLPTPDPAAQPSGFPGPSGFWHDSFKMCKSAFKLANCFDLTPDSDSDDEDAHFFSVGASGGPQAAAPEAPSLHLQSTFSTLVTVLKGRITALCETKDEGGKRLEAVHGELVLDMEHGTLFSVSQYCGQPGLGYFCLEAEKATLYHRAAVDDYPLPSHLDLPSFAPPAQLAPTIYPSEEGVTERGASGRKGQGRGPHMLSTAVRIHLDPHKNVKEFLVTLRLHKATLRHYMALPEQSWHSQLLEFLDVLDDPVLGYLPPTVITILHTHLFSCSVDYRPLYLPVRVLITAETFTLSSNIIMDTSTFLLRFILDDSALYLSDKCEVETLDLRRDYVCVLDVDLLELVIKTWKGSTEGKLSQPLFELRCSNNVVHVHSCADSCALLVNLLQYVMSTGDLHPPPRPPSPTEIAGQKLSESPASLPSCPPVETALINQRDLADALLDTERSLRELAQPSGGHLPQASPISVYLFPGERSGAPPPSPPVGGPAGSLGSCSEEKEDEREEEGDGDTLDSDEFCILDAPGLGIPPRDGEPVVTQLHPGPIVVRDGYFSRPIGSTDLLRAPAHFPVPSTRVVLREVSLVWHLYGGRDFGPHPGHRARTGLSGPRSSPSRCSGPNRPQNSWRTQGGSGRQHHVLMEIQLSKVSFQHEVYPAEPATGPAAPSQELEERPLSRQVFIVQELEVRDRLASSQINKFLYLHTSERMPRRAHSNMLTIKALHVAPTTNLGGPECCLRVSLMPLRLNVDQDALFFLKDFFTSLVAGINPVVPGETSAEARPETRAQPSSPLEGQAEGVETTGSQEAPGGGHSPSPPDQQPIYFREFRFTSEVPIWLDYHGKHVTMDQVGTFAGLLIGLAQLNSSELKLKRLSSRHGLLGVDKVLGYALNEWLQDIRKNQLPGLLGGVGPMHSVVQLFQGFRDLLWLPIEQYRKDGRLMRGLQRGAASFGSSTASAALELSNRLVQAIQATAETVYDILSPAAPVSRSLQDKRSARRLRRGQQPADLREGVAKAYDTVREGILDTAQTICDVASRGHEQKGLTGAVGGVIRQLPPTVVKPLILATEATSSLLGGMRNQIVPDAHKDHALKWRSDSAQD
UniProt O75608: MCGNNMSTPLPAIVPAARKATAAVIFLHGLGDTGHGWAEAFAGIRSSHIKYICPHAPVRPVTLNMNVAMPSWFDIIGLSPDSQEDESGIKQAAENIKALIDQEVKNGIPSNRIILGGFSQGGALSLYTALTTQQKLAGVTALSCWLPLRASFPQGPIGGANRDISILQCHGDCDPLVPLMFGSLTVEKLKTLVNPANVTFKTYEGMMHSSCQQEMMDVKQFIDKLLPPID
UniProt O95372: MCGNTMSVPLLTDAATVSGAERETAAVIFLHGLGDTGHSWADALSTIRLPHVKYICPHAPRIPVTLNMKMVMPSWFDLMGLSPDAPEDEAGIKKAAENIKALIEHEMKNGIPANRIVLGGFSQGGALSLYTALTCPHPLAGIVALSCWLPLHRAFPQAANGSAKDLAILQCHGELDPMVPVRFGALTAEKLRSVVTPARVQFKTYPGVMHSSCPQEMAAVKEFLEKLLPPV

Test [1] has as its target Flag-ATG2A (human) (UniProt Q2TAZ0). Briefly: co-IP; tagged proteins expressed (transfected or stably expressing) in HEK293T cells, WT or APT1-KO, in complete media or treated with EBSS; NP-40 lysis buffer (50 mM HEPES, 150 mM NaCl, 10% glycerol, 1% NP-40, 1 mM EDTA, 1 mM EGTA, pH 7.4), 4 °C; Western blot for the partner's tag.
The target in test [2] is recombinant GST-APT1 (UniProt O75608). Briefly: pull-down; purified GST-APT1/2 incubated with purified Flag-ATG2A overnight at 4 °C, then GSH agarose beads for 4 h at 4 °C; Western blot with anti-ATG2A; both purified. (In general: A western blot detects proteins with antibodies after separation by electrophoresis.)
Test [3] has as its target recombinant GST-APT2 (UniProt O95372). The description is as above.
The target in test [4] is T1, HA-ZDHHC11 (UniProt Q9H8X9).
T1 sequence: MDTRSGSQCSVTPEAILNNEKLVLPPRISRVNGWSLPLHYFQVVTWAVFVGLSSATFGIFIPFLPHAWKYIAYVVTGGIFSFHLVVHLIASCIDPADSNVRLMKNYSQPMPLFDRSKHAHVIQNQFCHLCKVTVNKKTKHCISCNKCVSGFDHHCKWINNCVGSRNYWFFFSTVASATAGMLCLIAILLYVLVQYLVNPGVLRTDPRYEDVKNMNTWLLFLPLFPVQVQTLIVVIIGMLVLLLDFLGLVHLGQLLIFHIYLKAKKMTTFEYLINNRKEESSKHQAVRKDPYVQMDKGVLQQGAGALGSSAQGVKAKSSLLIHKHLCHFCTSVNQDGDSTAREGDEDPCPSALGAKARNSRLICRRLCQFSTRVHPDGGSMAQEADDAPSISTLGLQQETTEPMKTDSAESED
Briefly: pull-down; HA-ZDHHC11 held on anti-HA beads (from HEK293T lysate, washed three times with high-salt IP lysis buffer), incubated with purified Flag-ATG2A for 6 h at 4 °C; Western blot with anti-ATG2A; both purified.

Test [5] addresses T2, Myc-ZDHHC11 (UniProt Q9H8X9).
T2 sequence: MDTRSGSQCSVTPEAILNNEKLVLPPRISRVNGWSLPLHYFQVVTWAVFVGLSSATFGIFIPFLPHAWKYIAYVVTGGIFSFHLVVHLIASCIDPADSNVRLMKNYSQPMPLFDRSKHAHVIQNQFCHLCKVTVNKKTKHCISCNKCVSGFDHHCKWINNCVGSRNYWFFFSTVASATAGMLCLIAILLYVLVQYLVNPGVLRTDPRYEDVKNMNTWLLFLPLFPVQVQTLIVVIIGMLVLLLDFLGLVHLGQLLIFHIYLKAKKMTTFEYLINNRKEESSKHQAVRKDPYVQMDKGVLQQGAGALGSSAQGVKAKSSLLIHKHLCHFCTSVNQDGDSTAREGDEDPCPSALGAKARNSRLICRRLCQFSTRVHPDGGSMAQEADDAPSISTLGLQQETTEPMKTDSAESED
Briefly: co-IP; tagged proteins expressed (transfected or stably expressing) in HEK293T cells, WT or APT1-KO, in complete media or treated with EBSS; NP-40 lysis buffer (50 mM HEPES, 150 mM NaCl, 10% glycerol, 1% NP-40, 1 mM EDTA, 1 mM EGTA, pH 7.4), 4 °C; Western blot for the partner's tag.

Test [6] has as its target T3, Myc-ZDHHC11 (∆1-42) (UniProt Q9H8X9).
T3 sequence: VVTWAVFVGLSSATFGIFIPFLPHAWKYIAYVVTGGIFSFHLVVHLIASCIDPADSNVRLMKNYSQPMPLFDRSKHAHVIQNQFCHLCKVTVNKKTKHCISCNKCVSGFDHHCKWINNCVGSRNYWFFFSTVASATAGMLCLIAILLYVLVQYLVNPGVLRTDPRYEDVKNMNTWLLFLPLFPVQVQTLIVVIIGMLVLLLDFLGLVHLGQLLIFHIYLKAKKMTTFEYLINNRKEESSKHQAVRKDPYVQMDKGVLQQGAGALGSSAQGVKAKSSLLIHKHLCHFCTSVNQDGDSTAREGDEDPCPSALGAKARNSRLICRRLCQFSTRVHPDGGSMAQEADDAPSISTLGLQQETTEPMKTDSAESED
The description is as above.

The target of test [7] is HA-ATG2A (human) (UniProt Q2TAZ0). Described as above.
Test [8] concerns the target Flag-ATG2A (human) (UniProt Q2TAZ0). Described as above. The source holds these as a separate data set.
In test [9] the target is HA-ATG2A (human) (UniProt Q2TAZ0). Described as above. The source holds these as a separate data set.
For test [10], the target named is HA-ATG2A-3CS (human) (UniProt Q2TAZ0). Described as above.
Test [11] deals with endogenous ATG2A (human (endogenous in HEK293T)) (UniProt Q2TAZ0). Briefly: co-IP; endogenous proteins in HEK293T cells.

Read-outs that look alike come from different tables or passages of the source. Results are given in words; binding and its absence hold for the method and conditions named. For some of these results: Binding seen in cells or lysates may run through a third protein. Some binding calls cover weakened binding; strength is not graded here. For some of these results: Sequences can lack the tags named with a protein.

Regarding “HA-APT2 (from UniProt O95372 1-231) (enzyme)”, the binding entry in [1] was “binds”.

On to “purified Flag-ATG2A (from UniProt Q2TAZ0 1-1938)”, for which the binding result in test [2], in [3] and in test [4] was “binds” in each case.

On to Flag-ATG2A (from UniProt Q2TAZ0 1-1938), for which the binding result was “binds” in test [5] and “no binding” in test [6].

For “Myc-APT1 (from UniProt O75608 1-230) (enzyme)”, the binding entry in [7] was “binds”.

“HA-APT1 (from UniProt O75608 1-230) (enzyme)”: the binding entry in test [1] is listed as “binds”.

B1: HA-ZDHHC6 (enzyme, UniProt Q9H6R6 1-413)
chain: MGTFCSVIKFENLQELKRLCHWGPIIALGVIAICSTMAMIDSVLWYWPLHTTGGSVNFIMLINWTVMILYNYFNAMFVGPGFVPLGWKPEISQDTMYLQYCKVCQAYKAPRSHHCRKCNRCVMKMDHHCPWINNCCGYQNHASFTLFLLLAPLGCIHAAFIFVMTMYTQLYHRLSFGWNTVKIDMSAARRDPLPIVPFGLAAFATTLFALGLALGTTIAVGMLFFIQMKIILRNKTSIESWIEEKAKDRIQYYQLDEVFVFPYDMGSRWRNFKQVFTWSGVPEGDGLEWPVREGCHQYSLTIEQLKQKADKRVRSVRYKVIEDYSGACCPLNKGIKTFFTSPCTEEPRIQLQKGEFILATRGLRYWLYGDKILDDSFIEGVSRIRGWFPRKCVEKCPCDAETDQAPEGEKKNR
Regarding B1, in [8], the binding result is “no binding”.

B2: GFP-WIPI4 (protein, UniProt Q9Y484 1-360)
chain: MTQQPLRGVTSLRFNQDQSCFCCAMETGVRIYNVEPLMEKGHLDHEQVGSMGLVEMLHRSNLLALVGGGSSPKFSEISVLIWDDAREGKDSKEKLVLEFTFTKPVLSVRMRHDKIVIVLKNRIYVYSFPDNPRKLFEFDTRDNPKGLCDLCPSLEKQLLVFPGHKCGSLQLVDLASTKPGTSSAPFTINAHQSDIACVSLNQPGTVVASASQKGTLIRLFDTQSKEKLVELRRGTDPATLYCINFSHDSSFLCASSDKGTVHIFALKDTRLNRRSALARVGKVGPMIGQYVDSQWSLASFTVPAESACICAFGRNTSKNVNSVIAICVDGTFHKYVFTPDGNCNREAFDVYLDICDDDDF
On to B2, for which the binding result in test [9] and in test [10] was “binds” throughout.

B3: Myc-VMP1 (protein, UniProt Q96GC9 1-406)
chain: MAENGKNCDQRRVAMNKEHHNGNFTDPSSVNEKKRREREERQNIVLWRQPLITLQYFSLEILVILKEWTSKLWHRQSIVVSFLLLLAVLIATYYVEGVHQQYVQRIEKQFLLYAYWIGLGILSSVGLGTGLHTFLLYLGPHIASVTLAAYECNSVNFPEPPYPDQIICPDEEGTEGTISLWSIISKVRIEACMWGIGTAIGELPPYFMARAARLSGAEPDDEEYQEFEEMLEHAESAQDFASRAKLAVQKLVQKVGFFGILACASIPNPLFDLAGITCGHFLVPFWTFFGATLIGKAIIKMHIQKIFVIITFSKHIVEQMVAFIGAVPGIGPSLQKPFQEYLEAQRQKLHHKSEMGTPQGENWLSWMFEKLVVVMVCYFILSIINSMAQSYAKRIQQRLNSEEKTK
B3: the binding entry in test [9] and in test [10] was “binds” each time.

B4: HA-ZDHHC11 (enzyme, UniProt Q9H8X9 1-412)
chain: MDTRSGSQCSVTPEAILNNEKLVLPPRISRVNGWSLPLHYFQVVTWAVFVGLSSATFGIFIPFLPHAWKYIAYVVTGGIFSFHLVVHLIASCIDPADSNVRLMKNYSQPMPLFDRSKHAHVIQNQFCHLCKVTVNKKTKHCISCNKCVSGFDHHCKWINNCVGSRNYWFFFSTVASATAGMLCLIAILLYVLVQYLVNPGVLRTDPRYEDVKNMNTWLLFLPLFPVQVQTLIVVIIGMLVLLLDFLGLVHLGQLLIFHIYLKAKKMTTFEYLINNRKEESSKHQAVRKDPYVQMDKGVLQQGAGALGSSAQGVKAKSSLLIHKHLCHFCTSVNQDGDSTAREGDEDPCPSALGAKARNSRLICRRLCQFSTRVHPDGGSMAQEADDAPSISTLGLQQETTEPMKTDSAESED
For the molecule B4, the binding result in test [8] is reported as “binds”.

B5: endogenous ZDHHC11 (enzyme, UniProt Q9H8X9 1-412)
chain: MDTRSGSQCSVTPEAILNNEKLVLPPRISRVNGWSLPLHYFQVVTWAVFVGLSSATFGIFIPFLPHAWKYIAYVVTGGIFSFHLVVHLIASCIDPADSNVRLMKNYSQPMPLFDRSKHAHVIQNQFCHLCKVTVNKKTKHCISCNKCVSGFDHHCKWINNCVGSRNYWFFFSTVASATAGMLCLIAILLYVLVQYLVNPGVLRTDPRYEDVKNMNTWLLFLPLFPVQVQTLIVVIIGMLVLLLDFLGLVHLGQLLIFHIYLKAKKMTTFEYLINNRKEESSKHQAVRKDPYVQMDKGVLQQGAGALGSSAQGVKAKSSLLIHKHLCHFCTSVNQDGDSTAREGDEDPCPSALGAKARNSRLICRRLCQFSTRVHPDGGSMAQEADDAPSISTLGLQQETTEPMKTDSAESED
Regarding B5, the binding result in [11] is on record as “binds”.

B6: Myc-ZDHHC11 (enzyme, UniProt Q9H8X9 1-412)
chain: MDTRSGSQCSVTPEAILNNEKLVLPPRISRVNGWSLPLHYFQVVTWAVFVGLSSATFGIFIPFLPHAWKYIAYVVTGGIFSFHLVVHLIASCIDPADSNVRLMKNYSQPMPLFDRSKHAHVIQNQFCHLCKVTVNKKTKHCISCNKCVSGFDHHCKWINNCVGSRNYWFFFSTVASATAGMLCLIAILLYVLVQYLVNPGVLRTDPRYEDVKNMNTWLLFLPLFPVQVQTLIVVIIGMLVLLLDFLGLVHLGQLLIFHIYLKAKKMTTFEYLINNRKEESSKHQAVRKDPYVQMDKGVLQQGAGALGSSAQGVKAKSSLLIHKHLCHFCTSVNQDGDSTAREGDEDPCPSALGAKARNSRLICRRLCQFSTRVHPDGGSMAQEADDAPSISTLGLQQETTEPMKTDSAESED
For B6, the binding result in [9] is given as “binds”.
